Here are results for five molecules from article PMC3821653.

The chains behind the UniProt entries cited, without tags or fusion partners. Where a name states a change or a piece, a line headed by the entry shows the natural chain unless it says otherwise.
UniProt O43196: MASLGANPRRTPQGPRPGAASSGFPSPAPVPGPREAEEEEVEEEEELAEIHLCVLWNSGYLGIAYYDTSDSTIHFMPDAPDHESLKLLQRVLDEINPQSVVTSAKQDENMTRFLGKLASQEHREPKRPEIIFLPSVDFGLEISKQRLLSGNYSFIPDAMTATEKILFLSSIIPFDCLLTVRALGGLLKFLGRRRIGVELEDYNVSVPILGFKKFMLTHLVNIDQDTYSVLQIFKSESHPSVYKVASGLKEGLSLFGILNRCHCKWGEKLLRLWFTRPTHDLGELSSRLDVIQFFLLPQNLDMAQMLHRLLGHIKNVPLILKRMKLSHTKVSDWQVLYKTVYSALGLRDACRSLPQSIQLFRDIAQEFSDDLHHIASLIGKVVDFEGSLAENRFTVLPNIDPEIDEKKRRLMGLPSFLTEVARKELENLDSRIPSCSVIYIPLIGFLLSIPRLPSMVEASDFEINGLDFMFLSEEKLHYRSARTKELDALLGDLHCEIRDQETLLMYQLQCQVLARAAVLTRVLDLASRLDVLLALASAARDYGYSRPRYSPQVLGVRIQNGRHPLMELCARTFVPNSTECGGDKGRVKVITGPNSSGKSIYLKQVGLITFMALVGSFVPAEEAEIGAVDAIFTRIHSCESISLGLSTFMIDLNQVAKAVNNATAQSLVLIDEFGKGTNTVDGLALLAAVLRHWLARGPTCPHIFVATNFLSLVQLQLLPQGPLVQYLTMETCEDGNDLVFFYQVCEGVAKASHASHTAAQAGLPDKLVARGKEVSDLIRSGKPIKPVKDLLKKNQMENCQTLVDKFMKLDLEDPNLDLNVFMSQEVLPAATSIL
UniProt Q13227: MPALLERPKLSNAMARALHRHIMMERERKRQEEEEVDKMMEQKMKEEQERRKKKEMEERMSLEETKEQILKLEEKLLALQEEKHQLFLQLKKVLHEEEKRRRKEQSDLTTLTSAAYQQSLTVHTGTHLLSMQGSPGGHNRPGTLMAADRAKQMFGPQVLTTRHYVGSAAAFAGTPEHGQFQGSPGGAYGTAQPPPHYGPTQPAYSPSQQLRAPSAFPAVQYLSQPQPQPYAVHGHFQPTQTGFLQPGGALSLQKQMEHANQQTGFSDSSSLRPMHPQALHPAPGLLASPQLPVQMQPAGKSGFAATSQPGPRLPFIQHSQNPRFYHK
UniProt O15379: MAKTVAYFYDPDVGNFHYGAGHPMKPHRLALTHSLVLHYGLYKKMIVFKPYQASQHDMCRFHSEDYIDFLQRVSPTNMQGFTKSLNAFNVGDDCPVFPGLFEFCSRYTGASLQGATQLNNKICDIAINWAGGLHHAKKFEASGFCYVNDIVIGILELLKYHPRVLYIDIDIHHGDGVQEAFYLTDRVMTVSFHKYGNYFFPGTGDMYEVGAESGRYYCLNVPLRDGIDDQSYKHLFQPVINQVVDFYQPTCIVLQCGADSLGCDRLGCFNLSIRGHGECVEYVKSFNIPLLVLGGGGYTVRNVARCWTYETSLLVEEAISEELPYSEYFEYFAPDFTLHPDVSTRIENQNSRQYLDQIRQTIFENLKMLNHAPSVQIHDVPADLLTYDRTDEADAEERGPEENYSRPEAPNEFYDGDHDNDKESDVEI
UniProt Q92993: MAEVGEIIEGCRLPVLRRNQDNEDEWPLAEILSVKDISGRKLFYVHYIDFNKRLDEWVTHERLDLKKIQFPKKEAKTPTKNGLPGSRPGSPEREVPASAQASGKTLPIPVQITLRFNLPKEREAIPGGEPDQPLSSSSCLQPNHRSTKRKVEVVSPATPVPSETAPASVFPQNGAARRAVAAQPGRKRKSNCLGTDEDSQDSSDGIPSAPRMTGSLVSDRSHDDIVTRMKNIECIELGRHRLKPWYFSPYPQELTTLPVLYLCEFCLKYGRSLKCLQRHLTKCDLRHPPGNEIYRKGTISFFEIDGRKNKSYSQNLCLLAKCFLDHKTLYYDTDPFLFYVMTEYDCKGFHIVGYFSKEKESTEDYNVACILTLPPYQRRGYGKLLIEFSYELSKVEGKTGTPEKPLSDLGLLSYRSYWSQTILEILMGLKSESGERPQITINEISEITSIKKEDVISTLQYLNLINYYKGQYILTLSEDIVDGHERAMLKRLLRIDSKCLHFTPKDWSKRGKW

These are yes or no findings as the source states them, for the method shown. For some assays here: In cells and extracts the contact can be indirect. Some results given as binding are weak or reduced against the parent protein; the word gives no strength. For some assays here: Tags and fused reporters may be left off the sequences shown.

Test [1] addresses hMSH4-hMSH5 heterocomplex (BD-hMSH4 with HA-hMSH5) (human) (UniProt O15457+O43196). Briefly: two-hybrid; yeast three-hybrid: BD-fusion with or without a 'native' HA-tagged third protein (pBridge) and AD-fusion (pGADT7) in strain AH109; HIS3 and ADE2 reporters, growth on SD/-Ade-Leu-His-Trp.
For test [2], the target named is hMSH4-hMSH5 heterocomplex (BD-hMSH5 with HA-hMSH4) (human) (UniProt O43196+O15457). Described as above.
Another test addresses T1, GST-hMSH4 (human) (UniProt O15457).
T1 sequence: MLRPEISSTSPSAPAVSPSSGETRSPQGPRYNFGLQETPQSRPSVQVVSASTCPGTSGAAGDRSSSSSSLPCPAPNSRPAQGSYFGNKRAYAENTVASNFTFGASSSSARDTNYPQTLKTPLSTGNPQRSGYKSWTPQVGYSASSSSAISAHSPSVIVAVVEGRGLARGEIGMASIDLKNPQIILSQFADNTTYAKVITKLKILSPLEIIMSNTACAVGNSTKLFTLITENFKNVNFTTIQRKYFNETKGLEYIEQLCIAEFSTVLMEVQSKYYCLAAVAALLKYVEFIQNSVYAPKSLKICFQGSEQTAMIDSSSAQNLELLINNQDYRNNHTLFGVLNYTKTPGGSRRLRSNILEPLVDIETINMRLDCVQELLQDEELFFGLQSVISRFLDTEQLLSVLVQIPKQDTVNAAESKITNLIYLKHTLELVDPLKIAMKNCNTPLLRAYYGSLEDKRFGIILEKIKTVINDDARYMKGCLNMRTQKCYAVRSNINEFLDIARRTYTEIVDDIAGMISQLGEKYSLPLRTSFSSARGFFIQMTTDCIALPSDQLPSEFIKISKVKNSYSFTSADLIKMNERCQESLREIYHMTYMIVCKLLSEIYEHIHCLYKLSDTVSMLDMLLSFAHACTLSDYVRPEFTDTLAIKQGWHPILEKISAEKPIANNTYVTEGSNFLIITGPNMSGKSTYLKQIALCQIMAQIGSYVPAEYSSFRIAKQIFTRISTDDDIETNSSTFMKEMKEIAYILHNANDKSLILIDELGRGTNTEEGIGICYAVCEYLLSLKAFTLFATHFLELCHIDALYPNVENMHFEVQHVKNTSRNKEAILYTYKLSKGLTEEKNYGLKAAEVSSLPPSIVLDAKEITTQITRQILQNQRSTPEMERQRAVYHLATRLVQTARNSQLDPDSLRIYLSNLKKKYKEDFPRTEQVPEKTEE
Briefly: pull-down; GST pull-down from soluble lysates of BL21(DE3)-RIL cells co-expressing the two proteins; GST fusion captured on glutathione-Sepharose 4B beads; Western blot. (In general: Immunoblotting shows a protein as a band on a membrane.)

Another test addresses T2, GST-hMof (human) (UniProt Q9H7Z6).
T2 sequence: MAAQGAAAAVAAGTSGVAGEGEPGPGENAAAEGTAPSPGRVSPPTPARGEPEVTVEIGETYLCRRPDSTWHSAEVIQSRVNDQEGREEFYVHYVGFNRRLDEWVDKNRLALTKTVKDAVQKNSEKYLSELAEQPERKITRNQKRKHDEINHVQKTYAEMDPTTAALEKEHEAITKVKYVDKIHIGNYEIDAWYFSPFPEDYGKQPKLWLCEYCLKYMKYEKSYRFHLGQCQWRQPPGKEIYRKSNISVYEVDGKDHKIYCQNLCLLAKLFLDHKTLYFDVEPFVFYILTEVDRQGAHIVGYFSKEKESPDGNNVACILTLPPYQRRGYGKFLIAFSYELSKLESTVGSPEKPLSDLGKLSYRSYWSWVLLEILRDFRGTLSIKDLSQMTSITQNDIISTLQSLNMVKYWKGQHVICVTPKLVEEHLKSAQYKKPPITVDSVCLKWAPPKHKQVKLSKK
The test is described as above.

In test [3] the target is T3, Flag-hMof (human) (UniProt Q9H7Z6).
T3 sequence: T2 sequence
Briefly: co-IP; 293T cells transfected with Myc-hMSH4 and Flag-hMof, not irradiated; IP with anti-Flag antibody, Western blot for hMSH4.

The target of test [4] is T3, Flag-hMof (human). Briefly: co-IP; 293T cells transfected with Myc-hMSH4 and Flag-hMof, 10 Gy IR at 48 h post transfection, extracts 6 h post IR; IP with anti-Flag antibody, Western blot for hMSH4.

For AD-GPS2 (from UniProt Q13227 1-327), the binding result in test [1] and in test [2] was “binds” throughout. Turning to “AD-HDAC3 (from UniProt O15379 1-428) (enzyme)”, the binding entry is on record as “binds” in test [1] and “no binding” in test [2]. On to “Flag-tagged hTip60 (from UniProt Q92993 1-513) (enzyme)”, for which the binding entry in the test with GST-hMSH4 (human) is listed as “no binding”.

B1: His6-hMSH4 (protein, UniProt O15457 1-936)
chain: T1 sequence
In the case of B1, the binding entry in the test with GST-hMof (human) was “binds”.

B2: Myc-hMSH4 (protein, UniProt O15457 1-936)
chain: T1 sequence
Consider B2, for which the binding entry is on record as “no binding (condition: cells without IR treatment)” in the test with Flag-hMof (human) [3] and “binds” in the test with Flag-hMof (human) [4].
